Measurements as given in the supplement of paper PMC10441789.
Some of the results follow. Antibody binding of pooled human sera (four to six donors per pool; dilution not stated) to peptides of the Trypanosoma cruzi antigen TSSA on microarrays. Quantile-normalised fluorescence in arbitrary units, mean of duplicate arrays; higher = more binding. No active / inactive call. The uninfected pools are read here as the healthy donors of the same country. The strongest signals lie near the top of the scale (about 60,000).

Tested on: pooled sera of chronic Chagas disease patients, Argentina
Test: antibody binding signal (normalised fluorescence) (arbitrary fluorescence units); higher = stronger serum antibody binding to peptide
Protocol: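 Microarray of 15-residue peptides over residues 30-55 of Trypanosoma cruzi TSSAII, each with 1 to 10 substitutions at naturally variable positions, probed with one serum pool per country.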

Sequence	antibody binding signal
TEKKPATGGTPSPPG	1680
TSSTPPSGKENKTAT	17500
SSTPPSGTDKKPAAG	40100
GTEKKTAAGETPSPP	371
KKTAAGEAPSQSGAS	218
KDKKPATGEAPSQPG	42900
TEKKPAAGGAPSPSG	1290
GKDKKPAAGGAPSQP	209
PSGTDKKTAAGETPS	1900
STPPSGTDKKAAAGE	35300
TSSTPPSGKENKPAT	20500
PPSGKDNKPATGGTP	772
KKPAAGGAPSPSGAS	170
GKDKKPATGETPSPS	29100
KDNKTATGETPSPSG	946
ISTPPSGTENKAATG	51700
PPSGKDKKTAAGGTP	851
GKDNKTAAGGAPSQP	375
SGTENKTATGGTPSP	29400
GKDKKTAAGGAPSPS	211

Sequence	antibody binding signal
SGTDNKAATGETPSP	5830
GKEKKTATGEAPSPS	8530
ISTPPSGKDKKPAAG	17400
SGTENKTATGETPSQ	18000
SGTEKKAAAGGAPSQ	1010
ENKPATGETPSQPGA	40700
ENKTATGGAPSPSGA	486
TPPSGTDKKAATGGT	18400
TDKKAATGGAPSPSG	1520
KDNKPAAGGAPSQSG	195
GTDKKAATGETPSPS	1440
ENKPATGETPSPPGA	38400
STPPSGKENKPAAGG	27700
SGKDNKPAAGETPSQ	1050
SGKEKKTAAGGAPSQ	2630
TSSTPPSGTEKKAAT	37400
GKENKAATGEAPSPP	28500
SGTEKKAATGETPSP	1490
KAAAGETPSPSGASS	175
TDKKTATGGAPSQPG	1340
